# In PubChem BioAssay AID720584 (National Center for Advancing Translational Sciences (NCATS), 2013):
# The shares of active, inactive and inconclusive entries below differ from those in the screen. Potencies of inconclusive entries are left out as doubtful fits. Active and inactive are the calls of the source. Calls follow the shape of the dose curve; as a rule, active = well fitted inhibition curve with a large enough effect; inconclusive = small, poorly fitted or top-dose-only effect; inactive = flat fitted curve, though single readings scatter.
# System: Trypanosoma brucei pyruvate kinase (TbPYK)
# Assay: qHTS of Trypanosoma Brucei Inhibitors: Orthogonal Assay for Cherry-picked Compounds; also: nearly all actives have a fitted effect of over 75% in size
# Conditions: recombinant TbPYK, ADP-Glo luminescence, 60 min; activity change, negative = inhibition: at 76.9 µM (top of the series)
# In short: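 Inhibition of TbPYK is read as luminescence from remaining ADP. Reactions contain 130 uM ADP (final) in TEA buffer pH 7.2 with KCl and MgCl2, incubate 60 min at room temperature, with no-enzyme controls.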
# % is scaled to controls: 0 for no effect and ±100 for the full control effect; potency is read from the fitted curve at half-maximal effect; tags tell the direction and shape of the fitted curve.
SMILES,"activity change, negative = inhibition",Potency
COCCn1c(C)cc(C(=O)COC(=O)c2ccc3ncsc3c2)c1C,inactive: -0.498%,–
COc1ccc(N=C(NN)c2ccc3ccccc3n2)cc1,–,"inconclusive [inhibitor, partial curve]"
Cc1ccc(/C=C/C(=O)NC2CCCCCCC2)o1,–,"inconclusive [inhibitor, full curve]"
Cc1ccc(Nc2nc(CSc3nnc(-c4ccncc4)n3-c3ccccc3C)cs2)cc1,–,"inconclusive [inhibitor, partial curve]"
COc1ccc(/C=C2/C(=O)ON=C2C)cc1Br,–,"inconclusive [inhibitor, partial curve]"
Cc1c(Br)c(O)c(Br)c2sc(=O)oc12,–,"inconclusive [inhibitor, partial curve]"
S=C1SCN(Cc2ccccc2)CN1Cc1ccco1,–,"inconclusive [inhibitor, partial curve]"
Fc1cccc(/C=N/Nc2nccnc2Cl)c1,inactive: 0.475%,–
Cc1nc(NC(=O)c2ccco2)sc1C(=O)O,inactive: -9.55%,–
COc1ccc(OC)c(NC(=O)CSc2ccc(-c3ccco3)nn2)c1,–,active: 25.1 µM
CC1=NN(c2ccccc2)C(=O)/C1=C/C=C/c1ccc(N(C)C)cc1,inactive: 10.8%,–
CCOC(=O)C1=C(N)N(c2ccccc2)C(=O)C1,inactive: -2.17%,–
CC1(C)CC(=O)C(=Cc2cn(-c3ccccc3)nc2-c2ccccc2)C(=O)C1,–,"inconclusive [inhibitor, partial curve]"
Fc1cccc(Cc2c(-c3ccco3)nc3ccc(Cl)cn23)c1,–,"inconclusive [inhibitor, single point]"
